For experiment [1], the target named is T1, mCherry-tagged Hdc (histidine decarboxylase), expressed in S2 cells (Drosophila) (UniProt Q05733).
T1 sequence: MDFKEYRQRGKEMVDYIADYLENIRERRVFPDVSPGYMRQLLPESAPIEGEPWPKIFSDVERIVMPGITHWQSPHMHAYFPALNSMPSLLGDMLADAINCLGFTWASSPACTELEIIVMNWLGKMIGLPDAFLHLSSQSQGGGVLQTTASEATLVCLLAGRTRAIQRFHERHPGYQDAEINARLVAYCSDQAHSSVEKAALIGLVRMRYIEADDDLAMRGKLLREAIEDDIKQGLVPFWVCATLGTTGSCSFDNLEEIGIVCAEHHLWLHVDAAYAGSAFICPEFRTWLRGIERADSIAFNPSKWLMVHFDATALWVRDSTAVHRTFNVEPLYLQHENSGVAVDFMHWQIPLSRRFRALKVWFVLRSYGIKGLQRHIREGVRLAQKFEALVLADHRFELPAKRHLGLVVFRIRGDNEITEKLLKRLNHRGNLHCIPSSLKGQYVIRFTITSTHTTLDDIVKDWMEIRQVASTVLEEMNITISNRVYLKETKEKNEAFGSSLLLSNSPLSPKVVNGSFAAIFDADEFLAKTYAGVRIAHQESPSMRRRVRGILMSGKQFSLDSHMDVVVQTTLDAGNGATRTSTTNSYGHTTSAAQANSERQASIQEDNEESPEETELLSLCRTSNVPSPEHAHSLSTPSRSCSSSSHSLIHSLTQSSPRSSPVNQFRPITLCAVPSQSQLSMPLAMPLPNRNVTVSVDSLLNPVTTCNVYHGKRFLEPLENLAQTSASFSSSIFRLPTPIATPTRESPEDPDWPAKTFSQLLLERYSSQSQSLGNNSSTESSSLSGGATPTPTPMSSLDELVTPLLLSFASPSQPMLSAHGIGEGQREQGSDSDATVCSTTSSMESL
Put plainly: co-IP; S2 cells co-expressing Hdc-mCherry and Myc-tagged NSF1; lysis in 10 mM Tris-HCl pH 7.4, 150 mM NaCl, 0.5 mM EDTA, 0.5% NP-40; precipitated with anti-mCherry (RFP agarose) beads, blotted against mCherry and Myc.

Amino acid sequences for entries named in this document (tags omitted). A change or cut given only in a name is not applied to a line headed by its entry.
UniProt P46461: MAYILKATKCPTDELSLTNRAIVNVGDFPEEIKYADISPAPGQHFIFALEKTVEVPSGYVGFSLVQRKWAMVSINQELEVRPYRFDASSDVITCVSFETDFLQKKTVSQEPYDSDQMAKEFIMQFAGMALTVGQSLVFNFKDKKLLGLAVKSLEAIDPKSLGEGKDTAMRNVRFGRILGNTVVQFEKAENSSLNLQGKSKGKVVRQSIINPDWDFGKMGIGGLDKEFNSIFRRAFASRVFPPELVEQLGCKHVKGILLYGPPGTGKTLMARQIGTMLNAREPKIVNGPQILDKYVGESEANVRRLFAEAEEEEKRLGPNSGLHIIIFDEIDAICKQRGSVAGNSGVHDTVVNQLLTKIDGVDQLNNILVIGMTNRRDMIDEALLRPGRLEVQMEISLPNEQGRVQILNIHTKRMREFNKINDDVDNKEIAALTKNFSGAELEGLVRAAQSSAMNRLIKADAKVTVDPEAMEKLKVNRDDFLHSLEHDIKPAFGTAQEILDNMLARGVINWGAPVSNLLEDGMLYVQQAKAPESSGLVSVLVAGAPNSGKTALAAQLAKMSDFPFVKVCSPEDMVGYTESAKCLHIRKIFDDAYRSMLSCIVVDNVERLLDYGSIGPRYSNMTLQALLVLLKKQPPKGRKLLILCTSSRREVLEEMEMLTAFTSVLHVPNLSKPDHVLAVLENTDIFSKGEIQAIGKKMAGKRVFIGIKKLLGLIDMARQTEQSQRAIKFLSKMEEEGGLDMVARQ

Experiment [2] addresses T2, mCherry-tagged Hdc (histidine decarboxylase), expressed in fly photoreceptor cells (Drosophila) (UniProt Q05733).
T2 sequence: T1 sequence
Put plainly: co-IP; lysates from dissected heads of trp-Hdc-mCherry/culd-NSF1-GFP flies; precipitated with anti-mCherry beads, blotted against mCherry and GFP.

Experiment [3] concerns the target MYC-tagged NSF1, expressed in S2 cells (Drosophila) (UniProt P46461). Kind of experiment: co-IP; S2 cells co-expressing NSF1-Myc and truncated Hdc with mCherry tag; lysis in 10 mM Tris-HCl pH 7.4, 150 mM NaCl, 0.5 mM EDTA, 0.5% NP-40; precipitated with Myc beads, blotted against Myc and mCherry.

No constants are given. Whether binding was seen depends on the method and setting. In cells and extracts the contact can be indirect. Some results given as binding are weak or reduced against the parent protein; the word gives no strength. For some of these results: Where a sequence is shown, tags or fusion partners need not be part of it.

For the molecule “MYC-tagged NSF1^G274E, expressed in S2 cells (from UniProt P46461 1-745)”, in experiment [1], the binding result is given as “binds”.

For “MYC-tagged NSF1, expressed in S2 cells (from UniProt P46461 1-745)”, the binding entry in experiment [1] is “binds”.

With “GFP-tagged NSF1, expressed in fly photoreceptor cells (from UniProt P46461 1-745)”, the binding entry in experiment [2] is recorded as “binds”.

B1: Hdc-dN-mCherry (Hdc lacking its N-terminal 34 amino acids, Hdc_(35-847)) (domain or fragment, UniProt Q05733 35-847)
chain: PGYMRQLLPESAPIEGEPWPKIFSDVERIVMPGITHWQSPHMHAYFPALNSMPSLLGDMLADAINCLGFTWASSPACTELEIIVMNWLGKMIGLPDAFLHLSSQSQGGGVLQTTASEATLVCLLAGRTRAIQRFHERHPGYQDAEINARLVAYCSDQAHSSVEKAALIGLVRMRYIEADDDLAMRGKLLREAIEDDIKQGLVPFWVCATLGTTGSCSFDNLEEIGIVCAEHHLWLHVDAAYAGSAFICPEFRTWLRGIERADSIAFNPSKWLMVHFDATALWVRDSTAVHRTFNVEPLYLQHENSGVAVDFMHWQIPLSRRFRALKVWFVLRSYGIKGLQRHIREGVRLAQKFEALVLADHRFELPAKRHLGLVVFRIRGDNEITEKLLKRLNHRGNLHCIPSSLKGQYVIRFTITSTHTTLDDIVKDWMEIRQVASTVLEEMNITISNRVYLKETKEKNEAFGSSLLLSNSPLSPKVVNGSFAAIFDADEFLAKTYAGVRIAHQESPSMRRRVRGILMSGKQFSLDSHMDVVVQTTLDAGNGATRTSTTNSYGHTTSAAQANSERQASIQEDNEESPEETELLSLCRTSNVPSPEHAHSLSTPSRSCSSSSHSLIHSLTQSSPRSSPVNQFRPITLCAVPSQSQLSMPLAMPLPNRNVTVSVDSLLNPVTTCNVYHGKRFLEPLENLAQTSASFSSSIFRLPTPIATPTRESPEDPDWPAKTFSQLLLERYSSQSQSLGNNSSTESSSLSGGATPTPTPMSSLDELVTPLLLSFASPSQPMLSAHGIGEGQREQGSDSDATVCSTTSSMESL
As for B1, the binding entry in experiment [3] is “no binding”.

B2: Hdc-C-mCherry (C-terminal region of Hdc, Hdc_(413-847)) (domain or fragment, UniProt Q05733 413-847)
chain: RGDNEITEKLLKRLNHRGNLHCIPSSLKGQYVIRFTITSTHTTLDDIVKDWMEIRQVASTVLEEMNITISNRVYLKETKEKNEAFGSSLLLSNSPLSPKVVNGSFAAIFDADEFLAKTYAGVRIAHQESPSMRRRVRGILMSGKQFSLDSHMDVVVQTTLDAGNGATRTSTTNSYGHTTSAAQANSERQASIQEDNEESPEETELLSLCRTSNVPSPEHAHSLSTPSRSCSSSSHSLIHSLTQSSPRSSPVNQFRPITLCAVPSQSQLSMPLAMPLPNRNVTVSVDSLLNPVTTCNVYHGKRFLEPLENLAQTSASFSSSIFRLPTPIATPTRESPEDPDWPAKTFSQLLLERYSSQSQSLGNNSSTESSSLSGGATPTPTPMSSLDELVTPLLLSFASPSQPMLSAHGIGEGQREQGSDSDATVCSTTSSMESL
In the case of B2, in experiment [3], the binding entry is “no binding”.

Consider MDFKEYRQRGKEMVDYIADYLENIRERRVFPDVS (domain or fragment, UniProt Q05733 1-34) [Hdc-N-mCherry (N-terminal region of Hdc, Hdc_(1-34))], for which the binding result in experiment [3] is on record as “binds”.

B3: Hdc-M-mCherry (enzymatic domain of Hdc, Hdc_(35-412)) (domain or fragment, UniProt Q05733 35-412)
chain: PGYMRQLLPESAPIEGEPWPKIFSDVERIVMPGITHWQSPHMHAYFPALNSMPSLLGDMLADAINCLGFTWASSPACTELEIIVMNWLGKMIGLPDAFLHLSSQSQGGGVLQTTASEATLVCLLAGRTRAIQRFHERHPGYQDAEINARLVAYCSDQAHSSVEKAALIGLVRMRYIEADDDLAMRGKLLREAIEDDIKQGLVPFWVCATLGTTGSCSFDNLEEIGIVCAEHHLWLHVDAAYAGSAFICPEFRTWLRGIERADSIAFNPSKWLMVHFDATALWVRDSTAVHRTFNVEPLYLQHENSGVAVDFMHWQIPLSRRFRALKVWFVLRSYGIKGLQRHIREGVRLAQKFEALVLADHRFELPAKRHLGLVVFRI
As for B3, in experiment [3], the binding entry is on record as “no binding”.

The values are drawn from PMC11480334.
